Compound in this assay: CCc1nc(-c2cccc(C)c2)c(-c2ccnc(NC(=O)c3ccccc3)c2)s1 [TAK-715]
Description: Viability of human cancer cell lines after 72 h of drug (GDSC screen). Conditions: top dose inferred. On the procedure: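 Human cancer cell lines in 384-well plates, medium with 10% serum, drug for 72 h over a 256-fold dose range (nine 2-fold or five 4-fold steps up to the top dose). Adherent lines were fixed and stained with the nucleic acid dye Syto60, suspension lines read with resazurin; signal relative to control wells, capped at 0 and 100%. One two-parameter sigmoid per drug and line, fitted in a mixed model over all curves with the slope shared within a line.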

What is called IC50 is the concentration needed to halve the response being measured.

IC50 is the fitted dose that halves viability relative to control wells, and lower means more sensitive; a fit beyond the top or the lowest dose is shown as a bound at that dose. The AUC spans the tested range (256-fold, ending at the top dose) of the same fit: 1 means no effect, lower means more sensitive. An inferred top dose is not printed in the source and was worked back from the curve model.

Turning to JHH-6 (liver, adherent, top dose 20 µM), the AUC stood at 0.968 and the IC50 was > 20 µM.

For the cell line JHH-7 (liver, adherent, top dose 20 µM), the AUC was found to be 0.939 and the IC50 was > 20 µM.

On to “JHOS-2 (ovary, adherent, top dose 20 µM)”, for which the AUC is 0.921 and the IC50 is > 20 µM.

As to “JHOS-3 (ovary, adherent, top dose 20 µM)”, the AUC is 0.939 and the IC50 is > 20 µM.

“JHU-011 (head and neck, adherent, top dose 20 µM)”: the AUC is 0.912 and the IC50 was > 20 µM.

Regarding “JHU-022 (head and neck, adherent, top dose 20 µM)”, the AUC came to 0.981 and the IC50 is > 20 µM.

For “JIMT-1 (breast, adherent, top dose 20 µM)”, the AUC is 0.957 and the IC50 is > 20 µM.

In the case of “JJN-3 (haematopoietic neoplasm, suspension, top dose 20 µM)”, the AUC stood at 0.915 and the IC50 was > 20 µM.

In the case of “JM1 (B-cell lymphoma, suspension, top dose 20 µM)”, the AUC amounted to 0.91 and the IC50 is > 20 µM.

“JSC-1 (B-cell lymphoma, suspension, top dose 20 µM)”: the AUC was 0.838 and the IC50 was found to be 13.3 µM.

Regarding “JURL-MK1 (chronic myeloid leukaemia, suspension, top dose 20 µM)”, the AUC turned out to be 0.933 and the IC50 is > 20 µM.

For “JVM-2 (lymphoid neoplasm, suspension, top dose 20 µM)”, the AUC turned out to be 0.942 and the half-inhibitory concentration (IC50) was > 20 µM.

As to “JVM-3 (lymphoid neoplasm, suspension, top dose 20 µM)”, the AUC came to 0.947 and the half-inhibitory concentration (IC50) is > 20 µM.

For the cell line “JiyoyeP-2003 (Burkitt lymphoma, suspension, top dose 20 µM)”, the AUC came out at 0.957 and the IC50 is > 20 µM.

With K2 (melanoma, adherent, top dose 20 µM), the AUC was determined as 0.959 and the concentration for half-maximal inhibition (IC50) is > 20 µM.

Consider K5 (thyroid, adherent, top dose 20 µM), for which the AUC was determined as 0.988 and the IC50 was > 20 µM.

“KALS-1 (glioma, adherent, top dose 20 µM)”: the AUC came out at 0.962 and the IC50 was > 20 µM.

Take “KARPAS-45 (lymphoblastic leukaemia, suspension, top dose 20 µM)”: the AUC is 0.664 and the IC50 was determined as 3.27 µM.

For “KARPAS-299 (anaplastic large cell lymphoma, suspension, top dose 20 µM)”, the AUC was found to be 0.898 and the IC50 was 17.6 µM.

Take “KARPAS-422 (B-cell lymphoma, suspension, top dose 20 µM)”: the AUC amounted to 0.953 and the IC50 was > 20 µM.

Turning to “KARPAS-620 (haematopoietic neoplasm, suspension, top dose 20 µM)”, the AUC turned out to be 0.832 and the IC50 amounted to 10.3 µM.

On to “KASUMI-1 (acute myeloid leukaemia, suspension, top dose 20 µM)”, for which the AUC was found to be 0.718 and the IC50 was found to be 5.19 µM.

As for “KCL-22 (chronic myeloid leukaemia, suspension, top dose 20 µM)”, the AUC turned out to be 0.925 and the half-inhibitory concentration (IC50) was > 20 µM.

As for “KE-37 (lymphoblastic leukaemia, suspension, top dose 20 µM)”, the AUC stood at 0.747 and the IC50 is 5.14 µM.

For the cell line “KELLY (neuroblastoma, adherent, top dose 20 µM)”, the AUC turned out to be 0.903 and the half-inhibitory concentration (IC50) was > 20 µM.

Regarding “KG-1 (acute myeloid leukaemia, suspension, top dose 20 µM)”, the AUC is 0.897 and the IC50 is > 20 µM.

For KGN (ovary, adherent, top dose 20 µM), the AUC came to 0.98 and the IC50 is > 20 µM.

In the case of “KINGS-1 (glioma, adherent, top dose 20 µM)”, the AUC stood at 0.975 and the IC50 was > 20 µM.

With “KLE (endometrium, adherent, top dose 20 µM)”, the AUC was 0.84 and the IC50 is > 20 µM.

In the case of “KM12 (large intestine, adherent, top dose 20 µM)”, the AUC came to 0.923 and the IC50 is > 20 µM.

Regarding “KM-H2 (Hodgkin lymphoma, suspension, top dose 20 µM)”, the AUC stood at 0.93 and the IC50 was > 20 µM.

Consider “KMH-2 (thyroid, adherent, top dose 20 µM)”, for which the AUC was determined as 0.956 and the IC50 is > 20 µM.

Take “KMOE-2 (acute myeloid leukaemia, suspension, top dose 20 µM)”: the AUC amounted to 0.9 and the IC50 is > 20 µM.

With “KMRC-1 (kidney, adherent, top dose 20 µM)”, the AUC turned out to be 0.978 and the IC50 is > 20 µM.

For the cell line “KMRC-20 (kidney, adherent, top dose 20 µM)”, the AUC was determined as 0.982 and the IC50 is > 20 µM.

Regarding “KMS-11 (myeloma, suspension, top dose 20 µM)”, the AUC was determined as 0.945 and the IC50 is > 20 µM.

Regarding “KMS-12-BM (myeloma, suspension, top dose 20 µM)”, the AUC is 0.892 and the IC50 was determined as 16.3 µM.

As to “KNS-42 (glioma, adherent, top dose 20 µM)”, the AUC amounted to 0.981 and the IC50 is > 20 µM.

Regarding “KNS-81-FD (glioma, adherent, top dose 20 µM)”, the AUC turned out to be 0.956 and the IC50 was > 20 µM.

“KON (head and neck, adherent, top dose 20 µM)”: the AUC was 0.968 and the concentration for half-maximal inhibition (IC50) was > 20 µM.

Turning to “KOPN-8 (B-cell leukaemia, suspension, top dose 20 µM)”, the AUC amounted to 0.894 and the concentration for half-maximal inhibition (IC50) was determined as 18 µM.

As to “KP-1N (pancreas, adherent, top dose 10.24 µM)”, the AUC amounted to 0.948 and the IC50 is > 10.2 µM.

Consider “KP-2 (pancreas, adherent, top dose 20 µM)”, for which the AUC stood at 0.959 and the IC50 is > 20 µM.

As to “KP-3 (pancreas, adherent, top dose 20 µM)”, the AUC amounted to 0.939 and the 50% inhibitory concentration (IC50) is > 20 µM.

“KP-4 (pancreas, adherent, top dose 20 µM)”: the AUC amounted to 0.94 and the IC50 is > 20 µM.

“KP-N-YN (neuroblastoma, adherent, top dose 20 µM)”: the AUC amounted to 0.95 and the IC50 is > 20 µM.

For the cell line “KP-N-YS (neuroblastoma, adherent, top dose 20 µM)”, the AUC was found to be 0.881 and the IC50 was > 20 µM.

On to KS-1 (glioma, adherent, top dose 20 µM), for which the AUC came to 0.956 and the IC50 is > 20 µM.

Turning to “KU812 (chronic myeloid leukaemia, suspension, top dose 20 µM)”, the AUC was determined as 0.873 and the IC50 came to 16.4 µM.

Turning to “KU-19-19 (bladder, adherent, top dose 20 µM)”, the AUC is 0.977 and the IC50 is > 20 µM.

With “KURAMOCHI (ovary, adherent, top dose 20 µM)”, the AUC is 0.983 and the IC50 is > 20 µM.

On to “KY821 (leukaemia, suspension, top dose 20 µM)”, for which the AUC came out at 0.952 and the IC50 is > 20 µM.

“KYAE-1 (oesophagus, suspension, top dose 20 µM)”: the AUC was 0.811 and the IC50 amounted to 12 µM.

Consider “KYM-1 (rhabdomyosarcoma, adherent, top dose 20 µM)”, for which the AUC is 0.989 and the IC50 was > 20 µM.

Take “KYSE-50 (oesophagus, adherent, top dose 20 µM)”: the AUC was 0.986 and the IC50 was > 20 µM.

With “KYSE-70 (oesophagus, adherent, top dose 20 µM)”, the AUC amounted to 0.941 and the IC50 was > 20 µM.

For the cell line “KYSE-140 (oesophagus, adherent, top dose 20 µM)”, the AUC was 0.823 and the IC50 was found to be 13.8 µM.

On to “KYSE-150 (oesophagus, adherent, top dose 20 µM)”, for which the AUC was found to be 0.959 and the IC50 is > 20 µM.

As to “KYSE-180 (oesophagus, adherent, top dose 20 µM)”, the AUC is 0.925 and the IC50 is > 20 µM.

Consider “KYSE-220 (oesophagus, adherent, top dose 20 µM)”, for which the AUC came out at 0.924 and the half-inhibitory concentration (IC50) was > 20 µM.

Turning to “KYSE-270 (oesophagus, adherent, top dose 20 µM)”, the AUC is 0.944 and the IC50 is > 20 µM.

As to “KYSE-410 (oesophagus, adherent, top dose 20 µM)”, the AUC turned out to be 0.951 and the IC50 is > 20 µM.

As for “KYSE-450 (oesophagus, adherent, top dose 20 µM)”, the AUC was determined as 0.867 and the IC50 was 16.4 µM.

Take “KYSE-510 (oesophagus, adherent, top dose 20 µM)”: the AUC is 0.97 and the IC50 was > 20 µM.

In the case of “KYSE-520 (oesophagus, adherent, top dose 20 µM)”, the AUC was determined as 0.981 and the IC50 was > 20 µM.

For “L-363 (myeloma, suspension, top dose 20 µM)”, the AUC was determined as 0.898 and the IC50 worked out at 19.1 µM.

Take “L-428 (Hodgkin lymphoma, suspension, top dose 20 µM)”: the AUC turned out to be 0.954 and the IC50 is > 20 µM.
